Measured values: the supplement of paper PMC12645437, “Orthogonal IMiD-Degron Pairs Induce Selective Protein Degradation in Cells” (ACS Chemical Biology, 2025)
The other results are listed elsewhere or left out.

B1: Q9UKT9 (peptide)
chain: FNCPICGHLFTQKGNLLRHIKL
B2: Q9UKT9 (peptide)
chain: LHCPICGFNCTQKGNLLRHIKL
B3: Q9UKT9 (peptide)
chain: FSCPQCGAFFTQKGNLLRHIKL
B4: Q9UKT9 (peptide)
chain: FSCEICGRDFTQKGNLLRHIKL
B5: Q9UKT9 (peptide)
chain: FMCDVCGAHFTQKGNLLRHIKL
B6: Q9UKT9 (peptide)
chain: FACDVCGALFTQKGNLLRHIKL
B7: Q9UKT9 (peptide)
chain: FLCNQCGAIFTQKGNLLRHIKL
B8: Q9UKT9 (peptide)
chain: LSCNQCGFLCTQKGNLLRHIKL
B9: Q9UKT9 (peptide)
chain: FCCSVCGHTFTQKGNLLRHIKL
B10: Q9UKT9 (peptide)
chain: FGCPQCGASFTQKGNLLRHIKL
B11: Q9UKT9 (peptide)
chain: FKCDQCGAMFTQKGNLLRHIKL
B12: Q9UKT9 (peptide)
chain: FGCEVCGATFTQKGNLLRHIKL
B13: Q9UKT9 (peptide)
chain: FFCNQCGAKFTQKGNLLRHIKL
B14: Q9UKT9 (peptide)
chain: FICEICGAAFTQKGNLLRHIKL
B15: Q9UKT9 (peptide)
chain: FGCDQCGAGFTQKGNLLRHIKL
B16: Q9UKT9 (peptide)
chain: FLCPQCGAIFTQKGNLLRHIKL
B17: Q9UKT9 (peptide)
chain: FLCEICGARFTQKGNLLRHIKL
B18: Q9UKT9 (peptide)
chain: FTCEICGAYFTQKGNLLRHIKL
B19: Q9UKT9 (peptide)
chain: FNCDVCGALFTQKGNLLRHIKL
B20: Q9UKT9 (peptide)
chain: LECPICGFKCTQKGNLLRHIKL
B21: Q9UKT9 (peptide)
chain: FACPICGRFFTQKGNLLRHIKL
B22: Q9UKT9 (peptide)
chain: FCCPQCGAQFTQKGNLLRHIKL
B23: Q9UKT9 (peptide)
chain: FMCDQCGAMFTQKGNLLRHIKL
B24: Q9UKT9 (peptide)
chain: LECEICGFSCTQKGNLLRHIKL
B25: Q9UKT9 (peptide)
chain: FRCNICGAQFTQKGNLLRHIKL
B26: Q9UKT9 (peptide)
chain: FGCSVCGHMFTQKGNLLRHIKL
B27: Q9UKT9 (peptide)
chain: FFCNQCGHAFTQKGNLLRHIKL
B28: Q9UKT9 (peptide)
chain: FGCEVCGARFTQKGNLLRHIKL
B29: Q9UKT9 (peptide)
chain: FQCNQCGALFTQKGNLLRHIKL
B30: Q9UKT9 (peptide)
chain: FQCEICGHLFTQKGNLLRHIKL
B31: Q9UKT9 (peptide)
chain: FYCPQCGANFTQKGNLLRHIKL
B32: Q9UKT9 (peptide)
chain: LACNQCGFVCTQKGNLLRHIKL

molecular target: no compound (DMSO); test: log2 fold change of degron read counts, EGFP-low vs EGFP+ sorted cells; higher = lower degron-EGFP level without compound (poor expression or instability); details: compound: DMSO control; 18 h
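Further: jurkat cells carrying a lentiviral library of mutant zinc finger degrons fused to EGFP plus mCherry, mCherry+ cells FACS sorted, degron abundance counted by next-generation sequencing.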

Row | Sequence | log2 fold change of degron read counts
1 | B1 | -0.0516
2 | B2 | 0.599
3 | B3 | 0.0617
4 | B4 | -1.63
5 | B5 | -2.21
6 | B6 | -1.4
7 | B7 | 0.552
8 | B8 | 1.07
9 | B9 | -0.742
10 | B10 | -1.12
11 | B11 | -1.65
12 | B12 | -2.6
13 | B13 | -0.172
14 | B14 | -2.36
15 | B15 | -1.35
16 | B16 | 0.774

Row | Sequence | log2 fold change of degron read counts
17 | B17 | -0.869
18 | B18 | -0.909
19 | B19 | -1.27
20 | B20 | 0.629
21 | B21 | -0.363
22 | B22 | -1.72
23 | B23 | -0.648
24 | B24 | -0.562
25 | B25 | -0.571
26 | B26 | 0.358
27 | B27 | 0.543
28 | B28 | -0.759
29 | B29 | -0.179
30 | B30 | -1.35
31 | B31 | -0.106
32 | B32 | -0.069
